# Some of the results follow. The list includes weakly bound sequences.
# Molecular target: MaxL homodimer (UniProt P61244)
# Experiment: universal protein-binding microarray (PBM)
# Conditions: PBS-based mixture, 10 nM His-tagged protein dimer, 2% milk, 200 ng/uL BSA, 50 ng/uL salmon testes DNA, 0.02% TX-100; detection with Alexa 488 anti-His …; high values mean tight binding; most listed sequences are background and not binding sites; double strand, one strand shown
# UniProt P61244, sequence (P61244 whole entry): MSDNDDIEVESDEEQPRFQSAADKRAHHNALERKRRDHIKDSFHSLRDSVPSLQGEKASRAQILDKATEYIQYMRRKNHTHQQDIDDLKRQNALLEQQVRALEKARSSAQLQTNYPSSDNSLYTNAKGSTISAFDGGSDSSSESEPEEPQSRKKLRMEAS
row,Sequence,binding signal (normalized occupancy)
1,CAGACGAA,0.0711
2,GCATTTCA,0.0785
3,CCGCAAAC,0.0727
4,CCGTAACC,0.0723
5,AAGCTGCT,0.0725
6,TGCTATAA,0.0838
7,TGACCCCA,0.0915
8,CTACAGAG,0.0735
9,ATGGGATA,0.0854
10,CAGGCATC,0.0725
11,CTAGTGAG,0.0776
12,ATCGAGGG,0.0773
13,GAGATATA,0.0807
14,AATTTAAC,0.0721
15,CCATCATA,0.0853
16,CAAAACCG,0.0676
17,AAATAGTC,0.0779
18,AGTGCTAC,0.0738
19,ATTCCCCC,0.081
20,GCCCGGTA,0.0697
21,ACTCGCCA,0.081
22,AAGATGTA,0.0786
23,GTAGGATA,0.0757
24,TGTGCACA,0.0902
25,CCTTGTAA,0.0766

row,Sequence,binding signal (normalized occupancy)
1,GCCTTGGA,0.0725
2,AATGGATA,0.0801
3,CGAGTTCA,0.0827
4,GCGACCTA,0.0698
5,GGTATGCA,0.0844
6,CACGTCTA,0.0825
7,GGAAACGA,0.0719
8,AGTTCGAA,0.0747
9,CGTGCGCA,0.0967
10,AGGTCGAA,0.0689
11,CTAGGCTA,0.0664
12,ATAAGGTG,0.0767
13,AATTTTCG,0.0716
14,CAGGTCAG,0.0752
15,TACATTCA,0.085
16,CAGTTAGC,0.0694
17,AAGCTAGT,0.0699
18,AGATCACG,0.0896
19,GCGCGATA,0.0728
20,AGACTGCA,0.0719
21,ACCCCGCA,0.0816
22,AAGGTATG,0.0817
23,AGCAGCCC,0.0713
24,CGGCTGCA,0.0669
25,CGACTAAC,0.0717

row,Sequence,binding signal (normalized occupancy)
1,ACGATAAC,0.0811
2,ATAGATTG,0.0832
3,AGGCAATC,0.0737
4,CTCTCTCC,0.0738
5,ATCGAGTG,0.0762
6,ATCTGCGC,0.0755
7,CCCAGGAA,0.0732
8,AACATTGA,0.0809
9,ATACCGGC,0.0765
10,AAGAGTAT,0.0783
11,ATTGGTTC,0.0728
12,ATTTTGGA,0.0799
13,AGAAGTAC,0.0753
14,AAATCACG,0.0875
15,CCCGACAA,0.0736
16,AAATGCAG,0.0778
17,AACCATAC,0.0801
18,CGACCACA,0.0861
19,CGGGCCCA,0.0639
20,ATGATTAC,0.083
21,GGAACGAA,0.0747
22,AGAAGCCG,0.069
23,GACTTTAC,0.0727
24,ACGTCGTC,0.0822
25,CTCATCGC,0.0766

row,Sequence,binding signal (normalized occupancy)
1,ATGGGACC,0.0814
2,AAACTAGT,0.0668
3,ATTTACAC,0.0834
4,ACAGATAG,0.0748
5,GAAATCGA,0.0664
6,AGGATTTA,0.076
7,AATACAGG,0.0759
8,CGATTATA,0.073
9,AGCTGCTC,0.0719
10,AGTGGTTC,0.0721
11,AACCACGG,0.0843
12,GTACGGAA,0.0756
13,ACGCCAAG,0.076
14,CCAAAACC,0.0689
15,TCATAAGA,0.0813
16,CACACCTA,0.081
17,ACACTACA,0.0746
18,AATAGATT,0.0811
19,ACGATGGC,0.0795
20,ACTTAACG,0.0738
21,CGATAAAC,0.0787
22,AAACTTCG,0.0694
23,GCAACCAA,0.0749
24,GGTACTCA,0.069
25,CCTCGGCA,0.0675

row,Sequence,binding signal (normalized occupancy)
1,CACAAATG,0.0765
2,CCAGCTGA,0.0721
3,GCCCCCGA,0.0746
4,AGAAGTCA,0.0698
5,GGCCCCGA,0.0707
6,GACGAGAA,0.0723
7,ATGGTCTA,0.0796
8,CTTTATAA,0.0823
9,GAGAGGAA,0.0739
10,CAGGATGA,0.0758
11,TATGAATA,0.0823
12,CAACATTG,0.0794
13,ACTGTTAC,0.0782
14,GCCGGAGC,0.0689
15,AAGGAAGC,0.0755
16,GGACGTAA,0.0748
17,GTGCGGGA,0.0785
18,CCGGTGCG,0.0746
19,ATAGCGAC,0.0789
20,GGTTTCGA,0.074
21,AAGGTGAA,0.0694
22,AGTAGGGG,0.0805
23,CTTCCCAA,0.0759
24,AGACTAAT,0.0731
25,GGATTAGA,0.0774

row,Sequence,binding signal (normalized occupancy)
1,AAGATCGC,0.0764
2,GTCACTGA,0.0746
3,CCATACGG,0.0859
4,GAATCGTC,0.0756
5,ATTGGACG,0.0732
6,AGGCGCGA,0.0694
7,TCACCCAA,0.0792
8,CAGGTTCC,0.0728
9,GCGAGAAC,0.0695
10,CCGAGCTA,0.0681
11,CGAAGTCC,0.0699
12,AAGGATGG,0.0801
13,ACAGGTCC,0.0734
14,GAGGATCC,0.0727
15,CAACATTA,0.0824
16,ATGCGATG,0.0811
17,CGGCAGTA,0.0735
18,CAACTCAG,0.0733
19,ATTGACCC,0.0793
20,CCTCGTAA,0.0845
21,AGCCGCAC,0.0791
22,TATTATAA,0.0865
23,ATTGCATG,0.0902
24,ACTAGAGA,0.0746
25,GCGCTTTA,0.0687

row,Sequence,binding signal (normalized occupancy)
1,GGAGCGGA,0.0697
2,TGGTTTAA,0.0816
3,AATGGAAG,0.074
4,CTGAATCA,0.0733
5,GAGTGGTA,0.0787
6,ACTAGAGG,0.0703
7,ACGAACTA,0.075
8,ACGCCCGT,0.0759
9,AACACAGA,0.0748
10,CAATACTC,0.0819
11,GGTACTAC,0.0761
12,CTCGGGGC,0.0751
13,CCTCAGCC,0.0754
14,GCCCAACC,0.0755
15,GAAACTCC,0.0662
16,GGGTATGA,0.0848
17,AGATAGCC,0.0724
18,CTACCTAC,0.0725
19,ATCTTCCA,0.0773
20,GAACGTAA,0.0714
21,ACTAACAG,0.0759
22,ACTGGAAC,0.0731

# — PMC4242493
